These results are taken from ChEMBL document CHEMBL1156829.

Each structure is given as a SMILES string. Whole data set: some 5,400 compounds, median “IFI” near 2, cut for the highest 2% near 22. This is one part of the list.

The nature of the test: NOVARTIS: Inhibition Frequency Index (IFI) - the number of HTS assays where a compound showed > 50% inhibition/induction, expressed as a percentage of the number of assays in which the compound was tested. It is filed as functional.
`CC(=O)Nc1ccc2c(c1)CCCC2`: the IFI amounted to 0%. In the case of `COc1ccc(S(=O)(=O)N2CCCCC2C(=O)NC(CN2CCCC2)c2ccccc2)cc1` (centres undefined) it was 0.971%; in that of `C=CCSc1nn2c(=O)c(C)nnc2s1`, 0%; in that of `Cc1cc(S(=O)(=O)N2CCN(Cc3ccccc3)CC2)ccc1-n1cnnn1`, 1.61%. In the case of `NC(=S)NN=C1c2ccccc2-c2nc3nonc3nc21` it was 0%; in that of `COc1cc(COc2cc(N)c(Cl)cc2C(=O)CCC2CCN(CCNS(C)(=O)=O)CC2)cc(OC)c1`, 2.56%.

Compound `O=C(O[Si](c1ccccc1)(c1ccccc1)c1ccccc1)c1ccccc1` had an IFI of 0%.

For `CC(=O)Nc1ccc(NC2=CC(=NS(=O)(=O)c3ccccc3)c3ccccc3C2=O)cc1`, the IFI was 7.69%.

Compound `Cc1nc(N2CCC(C)CC2)c2c(C)c(C(=O)Nc3ccc(C(F)(F)F)cc3)sc2n1` gave an IFI of 0%.

In turn, `CC(C)(C)CC(C)(C)Nc1c(-c2ccccc2OC(=O)c2ccc([N+](=O)[O-])cc2)nc2ccccn12` gave an IFI of 2.88%. In the case of `CCOC(=O)c1sc(Nc2c(Cl)cc(S(N)(=O)=O)cc2Cl)nc1C` it was 0%.

`Nc1nnc(SCC(=O)Nc2nnc(SCC(=O)Nc3nccs3)s2)s1` displayed an IFI of 3.37%. `O=C(NC1CCN(CC(O)CN(Cc2ccccc2)S(=O)(=O)c2ccccc2)C1)C1CCCCC1` (centres undefined) registered an IFI of 1.94%. For `CCn1c(CSc2nc(C)cc(C)n2)nnc1SCC(N)=O` the value was 2.7%. In the case of `COCCN1C(=O)c2[nH]nc(-c3ccccc3O)c2C1c1ccc(SC)cc1` (centres undefined) it was 0%; in that of `Cc1ccc2[nH]c(/C(C#N)=C/c3cn(Cc4ccc(Cl)cc4Cl)nc3-c3ccccc3)nc2c1`, 2.31%. For `c1ccc(/C2=N/c3ccccc3/N=C(/c3ccccc3)c3ccccc32)cc1` the value was 1.15%; for `CC(C)CCN1C(=O)N(CCN(C)C)C(=O)C12CCN(Cc1ccc(O)cc1)CC2`, 2.47%; for `Cc1nc(NC(=N)N)nc2c(C)cccc12`, 4.54%. The compound `CCCCNc1cc(C)nc(NCc2ccccc2)n1` returned an IFI of 8.33%.

As to `Cc1cccc(NC(=O)/C(C#N)=C/c2ccc(C)o2)c1`, the IFI came out at 9.09%. As for `CCc1cc(C(=O)OC)c(NC(=S)NC(C)c2ccncc2)s1` (centres undefined), the IFI was determined as 0%. In the case of `CCCc1c(C)nc2ccc(C)cc2c1O` it was 0%. In the case of `CCN(CC)S(=O)(=O)c1ccc(-c2csc(=Nc3cccc4ccccc34)n2C)cc1` it was 0%; in that of `CC(C)CN1C(=O)c2ccccc2C(C(=O)Nc2cccc(C(F)(F)F)c2)C1c1cccs1` (centres undefined), 3.03%. For `CC(C)N1CC[C@@H](N2CCN(c3cccc(C(F)(F)F)c3)CC2)[C@@H](CCC(=O)N(C)C2CCN(C)CC2)C1` the value was 9%; for `C1CCC(NP2(NC3CCCCC3)=NP(NC3CCCCC3)(NC3CCCCC3)=NP(NC3CCCCC3)(NC3CCCCC3)=N2)CC1`, 3.12%.

In turn, `Cc1ccc(Nc2nc(-c3ccccn3)cs2)cc1` showed an IFI of 3.62%. For `c1ccc2nc3c(nnc4ccccc43)nc2c1` the value was 15.4%. In the case of `Cc1ccc2nc3nc4c(C)cccc4c(N)c3cc2c1` it was 8.96%; in that of `O=C(Nc1ccc(-c2nc3ccccc3[nH]2)cc1)c1ccc(-c2cccc([N+](=O)[O-])c2)o1`, 5.77%; in that of `COc1cccc(CNC(=O)C2CNCC2c2ccc(C(F)(F)F)cc2)c1` (centres undefined), 1.39%.

`CCOC(=O)C1CCN(C(=S)Nc2ccc3nsnc3c2)CC1`: the IFI came to 13%. For `Cc1ccc(-c2nc(CS(=O)(=O)CC(=O)NC3CCC(C)CC3)c(C)o2)cc1` (centres undefined) the value was 0%. For `O=C(Nc1ccc(C2=NCCN2)c(Cl)c1)c1cccc(C(=O)Nc2ccc(C3=NCCN3)c(Cl)c2)c1` the value was 0.917%; for `CC(C)c1ccc(OCC(=O)NN=Cc2cccc([N+](=O)[O-])c2)cc1`, 0%; for `NC(=O)C1CCCN(C(=O)COC(c2ccccc2)c2cccnc2Cl)C1` (centres undefined), 1.94%.

For the compound `O=[N+]([O-])c1ccc(N2CCCN(C(=S)Nc3ccc(F)cc3Br)CC2)nc1`, the IFI was 0.84%. In the case of `COc1ccc(-c2csc(NC(=O)COc3ccccc3Cl)n2)cc1Br` it was 0%. For `COc1cc(Cl)c(C)cc1NC(=O)C1c2ccccc2C(=O)N(CC(C)C)C1c1cccs1` (centres undefined) the value was 9.09%. `O=C(CCc1ccccc1)c1ccccc1OCC(O)CN1CCCCC1` (centres undefined) registered an IFI of 1.46%. In the case of `CC1=C(C(=O)OC(C)C)C(c2ccccc2F)C2=C(CC(C)(C)CC2=O)N1` (centres undefined) it was 0%; in that of `Cc1oc(-c2cccs2)nc1CN1CCC(CO)(CCOc2ccccc2)CC1`, 0%.

Consider `CCOC(=O)c1c(NC(=O)C(C)Sc2nnc(CNC(=O)c3ccco3)n2-c2cccc(C(F)(F)F)c2)sc2c1CCC2` (centres undefined), for which the IFI was determined as 2.5%. In the case of `OC1=C2C(=Nc3ccccc3SC2c2ccco2)c2ccccc21` (centres undefined) it was 1.5%; in that of `Cc1cccc2nc(N)nc(N)c12`, 0%; in that of `Cc1cc(Nc2cccc(C(F)(F)F)c2)nc(N)n1`, 0%. Take `Cc1ccccc1CSc1ccc(-c2cccs2)nn1`: the IFI amounted to 12.5%. `COc1cc([C@@H]2OC[C@@H]3[C@H]2CO[C@H]3c2cc(OC)c(O[C@@H]3O[C@H](CO)[C@@H](O)[C@H](O)[C@H]3O)c(OC)c2)cc(OC)c1O` showed an IFI of 0%. For `OC(COc1ccc(OCC(O)CN2CCN(CCOc3ccccc3)CC2)cc1)CN1CCN(CCOc2ccccc2)CC1` (centres undefined) the value was 7.14%; for `CN1C(=O)N(C)C(NNC(N)=S)C1NNC(N)=S` (centres undefined), 14.3%. In the case of `Cc1cc(C)c2c(c1)OC(N)(C(Cl)(Cl)Cl)CC2=O` (centres undefined) it was 2.27%; in that of `COc1ccc(C=NNc2nc(Nc3ccc([N+](=O)[O-])cc3)nc(N3CCN(C)CC3)n2)cc1OC`, 5.88%. In turn, `CCCCNC(=O)c1ccc(OC2CCN(CC3CCCCC3)CC2)c(Cl)c1` returned an IFI of 1.41%. In the case of `COc1cc(C(=O)Nc2ccc3nc4n(c(=O)c3c2)CCCCC4)cc(OC)c1OC` it was 0%; in that of `c1ccc(-c2cc(NCc3ccco3)nc(-c3ccccn3)n2)nc1`, 7.69%. For `COC(=O)c1ccc(N(C(=O)Cc2c[nH]c3ccccc23)C(C(=O)NC2CCCCC2)c2cccnc2)cc1` (centres undefined) the value was 3.64%; for `CC(=O)N(C1=C(N2CCCC2)C(=O)c2ccccc2C1=O)c1ccc(F)cc1`, 8.11%; for `O=C(C1CC1)N1CCc2cc(Br)cc(S(=O)(=O)N3CCCC3)c21`, 0%. `CCOc1ccc(C2C(=O)N(C3CCCCC3)CC(=O)N2Cc2ccc(F)cc2)cc1OC` (centres undefined) had an IFI of 0%. In the case of `COc1ccc(CCNc2nc(NCCC3CCCN3C)ncc2C(=O)NCc2ccccc2)cc1OC` (centres undefined) it was 1.92%.

Turning to `COc1cc(C=NNc2nc3ccccc3[nH]2)cc(Br)c1O`, the IFI stood at 7.69%.

Take `N#CC(c1ccc(C(F)(F)F)cc1)c1ccc2c(C(F)(F)F)cc(C(F)(F)F)nc2n1` (centres undefined): the IFI was found to be 26.3%. `Cn1nc(C(=O)N2CCCCCC2)c2c1CCC(NCC(C)(C)N1CCOCC1)C2` (centres undefined) displayed an IFI of 1.21%. In the case of `Sc1nnc(-c2ccncc2)n1CCc1ccccc1` it was 1.51%. `CCCCNC(=O)c1nn(-c2ccc(OC)cc2)c(=O)c2ccccc12` showed an IFI of 2.35%. For `CCN(CC)S(=O)(=O)c1cc(S(=O)(=O)c2ccc(Cl)c(S(=O)(=O)N(CC)CC)c2)ccc1Cl` the value was 1.49%. `CCn1c(-c2ccc(O)cc2)nn(CN2CCN(Cc3ccc4c(c3)OCO4)CC2)c1=S` displayed an IFI of 0%. For `Cc1ccc2[nH]c3c(NCCN4CCCC4)ncnc3c2c1` the value was 8%; for `CCn1c(N=Nc2ccc(OC)cc2)nc2ccccc21`, 7.69%; for `COc1cc(-c2nc(-c3ccc(Sc4ccccc4)cc3)c(-c3ccccc3)[nH]2)cc(OC)c1O`, 4.65%. For `CCN(CC)Cc1cc(Nc2nc3ccccc3[nH]2)cc(CN(CC)CC)c1O` the value was 0%. In turn, `Cc1cc(C)n2nc(-c3ccc(Cl)cc3)cc2n1` showed an IFI of 5.52%.

`C/C(Cl)=C/Cc1c(C)nc2c(ccc3ccccc32)c1O` displayed an IFI of 0%. In the case of `O=C(NCCCCCCCCNC(=O)Nc1ccc(C2=NCCN2)cc1)Nc1ccc(C2=NCCN2)cc1` it was 0%. For `c1ccc(N=c2n(-c3ccccc3)c(=Nc3ccccc3)n(-c3ccccc3)c(=Nc3ccccc3)n2-c2ccccc2)cc1` the value was 0%; for `Cc1cc(C)n(N=Cc2ccc(Cl)cc2)c(=O)c1C#N`, 0%. In the case of `CCOC(=O)c1[nH]c(C)c(CNc2cccc(F)c2)c1C` it was 0%. With `CCn1c(SCCNC(=O)CC(C)C)nc(-c2ccccc2)c1-c1ccccc1`, the IFI came to 3.81%. For `CCN1/C(=C\C=C\C2=[N+](C)c3ccccc3C2(C)C)N(c2ccccc2)c2ccccc21` the value was 28.6%.

As to `CCCCc1c(CCC)c(=N)c2ccccc2n1C`, the IFI worked out at 4.54%. In the case of `COc1cc(OC)c(NC(=O)c2ccc(N3CC4CC(C3)c3cccc(=O)n3C4)c([N+](=O)[O-])c2)cc1Cl` (centres undefined) it was 0%; in that of `CCN1CCC(NC2CCCc3c2[nH]c2ccc([N+](=O)[O-])cc32)CC1` (centres undefined), 7.14%; in that of `COc1ccc(C2CC(=O)C3=C(C2)NC(C)=C(C(=O)OC(C)C)C3c2cccc(Cl)c2Cl)cc1OC` (centres undefined), 4.76%. For `COc1cccc(-c2cc(C(=O)Nc3cc(Cl)ccc3O)on2)c1` the value was 0%; for `Cc1cc2nc(NC(=N)N)nc(C)c2cc1C`, 0%. In the case of `Cc1c(C=O)c2ccccc2n1CC(=O)Nc1cccc(I)c1` it was 7.69%.

As for `COc1ccc(N2CCN(C(=O)C3=C(C)C(=O)OC34CCCCC4)CC2)cc1`, the IFI worked out at 0%. In the case of `CCN(CC)S(=O)(=O)c1ccc(C(=O)NCc2nnc(SCC(=O)N3CCc4ccccc43)n2-c2ccccc2OC)cc1` it was 3.57%.

In turn, `Cc1cc(Nc2ccc(C)c(F)c2)n2nc(C)nc2n1` yielded an IFI of 2%.

Consider `COc1cccc(CCOc2ccc3c(c2)C(=O)N(C(C(=O)NC(C)(C)C)c2cccc(OC)c2)C(CO)C(=O)N3)c1` (centres undefined), for which the IFI turned out to be 2.3%. In the case of `C=C(C)[C@@]12O[C@@H]1[C@@]1(C)C(=CC2=O)CC[C@@H](O)[C@@H]1C` it was 5.17%. In the case of `CCOC(=O)C1=C(N)n2c(sc(=Cc3cccnc3)c2=O)=C(C(=O)OC)C1c1cccnc1` (centres undefined) it was 0%. For `FC(F)(F)c1cccc(-c2nc3c(s2)CN(C2CCCC2)CC3)c1` the value was 2.78%; for `Fc1ccc(Nc2nc(NCc3ccco3)c3ccccc3n2)cc1`, 9.68%.

Turning to `COc1cccc(-c2ccc(O)c(CNC3CCN(Cc4ccccc4)CC3)c2)n1`, the IFI worked out at 4.31%. In the case of `CCCCc1ccc(C(=O)NCCCN(C(=O)Nc2ccc([N+](=O)[O-])cc2)c2ccccc2)cc1` it was 2.08%; in that of `CCOc1ccc(Nc2cc(C)nc(Nc3ccc(OCC)cc3)n2)cc1`, 4.62%; in that of `O=C(Nc1cccc(N2CCC(NCC3CCCCC3)CC2)c1)C1CC1`, 0%.
